US20240301031A1 (JIANGSU HENGRUI PHARMACEUTICALS, published 2024)

B1: TACI-Mab1 (other)
heavy: EVQLVQSGAEVKKPGESLKISCKGSGYSFTTYWLGWVRQMPGKGLDWIGIMSPVDSDIRYSPSFQGQVTMSVDKSITTAYLQWNSLKASDTAMYYCARRRPGQGYFDFWGQGTLVTVSS[omitted - human IgG1 constant region]GGSSTSCREEQGEFYDHLLRDCISCASICGQHPKQCAAFCENK
light: [omitted - about 200 residues]
notes: also called TACI antibody fusion protein
B2: TACI-Mab2 (other)
heavy: B1 heavy
light: STSCREEQGEFYDHLLRDCISCASICGQHPKQCAAFCENKLGGGGSGGGGSGGGGS[omitted - about 200 residues]
notes: as for B1

Assays:
[1] = target: BAFF (R&D Systems, 7537-BF) (UniProt Q9Y275 fragment); assay: cell-based or functional assay
[2] = target: T1, IL-23 (R&D Systems, 1290-IL-010) (UniProt Q9NPF7 20-189; P29460 23-328); assay: cell-based or functional assay
T1 sequence (looked up) 1: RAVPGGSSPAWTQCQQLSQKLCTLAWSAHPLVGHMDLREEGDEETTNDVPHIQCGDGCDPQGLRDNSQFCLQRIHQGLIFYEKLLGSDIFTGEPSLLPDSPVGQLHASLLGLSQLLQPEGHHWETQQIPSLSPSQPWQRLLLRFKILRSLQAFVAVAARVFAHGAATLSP
T1 sequence (looked up) 2: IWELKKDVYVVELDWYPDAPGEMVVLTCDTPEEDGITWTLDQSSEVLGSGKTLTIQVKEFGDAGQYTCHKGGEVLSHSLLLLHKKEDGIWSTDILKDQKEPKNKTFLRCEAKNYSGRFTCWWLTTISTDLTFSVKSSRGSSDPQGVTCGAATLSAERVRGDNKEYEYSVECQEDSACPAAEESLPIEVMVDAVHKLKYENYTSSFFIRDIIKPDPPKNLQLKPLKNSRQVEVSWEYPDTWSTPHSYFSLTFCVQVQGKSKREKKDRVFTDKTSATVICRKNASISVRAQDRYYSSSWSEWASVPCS

[3] = target: T2, human BAFF (10056-HNCH, Sino biological) (human, UniProt Q9Y275 fragment); assay: ELISA, BAFF coated, sample titrated
T2 construct: Bought protein
Method: The binding activity of the antibodies or fusion proteins for BAFF, APRIL, and IL-12/23 p40 was assayed by the ELISA method (coating an antigen protein). The specific procedures were as follows:
A BAFF (Sino biological, 10056-HNCH), APRIL (R&D Systems, 5860-AP-010/CF), or IL-12/23 p40 (Sino biological, 10052-H08H) protein was diluted to 1 μg/mL with a PBS (BasalMedia, B320) buffer at pH 7.4, and added to a 96-well microplate (Corning, 3590) at 100 μL/well. The plate was incubated at 4° C. overnight. After the liquid was discarded, 300 μL of 5% skim milk (BD, 232100) diluted with PBS was added to each well for blocking, and the plate was incubated at 37° C. for 2 h. After the blocking was completed, the blocking solution was discarded, and the plate was washed 3 times with a PBST buffer (PBS at pH 7.4 containing 0.1% tween-20). 100 μL of test antibody or fusion protein solution diluted in a gradient was added to each well, and the plate was incubated at 37° C. for 1 h. After the incubation was completed, the plate was washed 3 times with PBST. […] The plate was washed 3 times with PBST. […] The plate was read for absorbance values at 450 nm on a microplate reader, the binding curves of the antibodies to an antigen were fitted with software, and the EC₅₀ values were calculated.

[4] = target: T2, human BAFF (10056-HNCH, Sino biological); assay: competition ELISA: biotin-labeled BAFF to coated BCMA
Method: (§1) A receptor protein was diluted to 2 μg/mL with PBS at pH 7.4 (BasalMedia, B320) and added to a 96-well microplate (Corning, 3590) at 100 μL/well. The plate was incubated at 4° C. overnight. After the liquid was discarded, 200 μL of 1% Casein blocking solution (Thermo, 37528) was added to each well for blocking, and the plate was incubated at 37° C. for 2 h. After the blocking was completed, the blocking solution was discarded, and the plate was washed 3 times with a PBST buffer (PBS at pH 7.4 containing 0.1% tween-20) for later use. A biotin-labeled ligand protein at a fixed concentration was mixed with the antibody or fusion protein diluted in gradient, pre-incubated at 37° C. for 30 min, and added to a blocked microplate. The plate was incubated at 37° C. for 1.5 h. After the incubation was completed, the plate was washed 3 times with PBST. 100 μL of streptavidin-HRP (Invitrogen, 434323, diluted at a ratio of 1:4000) was added to each well, and the plate was incubated at 37° C. for 1 h. The supernatant was removed, and the plate was washed 3 times with PBST. […] The plate was read for absorbance values at 450 nm on a microplate reader, the curves for the inhibition of the binding of the ligands to the receptors were fitted with software, and the IC₅₀ values were calculated. […]

[5] = target: T2, human BAFF (10056-HNCH, Sino biological); assay: competition ELISA: biotin-labeled BAFF to coated TACI
Method: as §1

[6] = target: T3, IL-12/23 p40 (Sino biological, 10052-H08H) (UniProt P29460 23-328); assay: competition ELISA: biotin-labeled p40 to coated IL-12Rβ1
T3 construct: Bought protein
T3 sequence (looked up): T1 sequence (looked up) 2
Method: as §1

T2 sequence (Q9Y275 134-285 limits assumed): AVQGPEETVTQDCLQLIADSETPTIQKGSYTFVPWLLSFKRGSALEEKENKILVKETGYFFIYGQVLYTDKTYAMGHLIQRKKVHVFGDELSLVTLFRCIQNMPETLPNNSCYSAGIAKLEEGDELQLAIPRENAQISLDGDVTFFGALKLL

Binder | IC50 (nM) for the inhibition of the BAFF-induced B cell proliferation [1] [nM] | IC50 (nM) for the inhibition of IL-23-induced IL-17 secretion [2] [nM] | EC50 [3] [pM] | IC50 [4] [pM] | IC50 [5] [pM] | IC50 [6] [pM]
B1 | 0.0672 | 1.69 | 3750 | 143 | 252 | 2060
B2 | 0.0571 | 2.34 | 4790 | 195 | 184 | 2080
